Values joined by “and” are separate entries in the source; they are usually repeats but may differ in a detail not shown here. Equal values may be shown once. The whole screen tested about 410,000 compounds, of which about 530 (0.13%) were called active. The shares of active, inactive and inconclusive entries below differ from those in the screen. Calls follow the shape of the dose curve; as a rule, active = well fitted inhibition curve with a large enough effect; inconclusive = small, poorly fitted or top-dose-only effect, or another doubt; inactive = no such curve, though single readings can be large or run the other way. Where the call is inconclusive, the potency comes from a doubtful curve fit.
Assay: qHTS of GLP-1 Receptor Inverse Agonists: Cytotox Screen
Conditions: HEK293 cAMP-luciferase reporter cells, luminescence, 24 h; activity change, negative = inhibition: at 38.3 µM (top of the series) unless noted
Procedure, shortened: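 Compound-treated cells are incubated 24 hr at 37 deg C under 5% CO2 after a 12 hour attachment period, then luciferase detection reagent is added and luminescence is measured following 12 min at room temperature; lowered signal indicates toxicity.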
% is scaled to controls: 0 for no effect and ±100 for the full control effect; potency is read from the fitted curve at half-maximal effect.

Structure (SMILES) | activity change, negative = inhibition | Potency
CC(NS(=O)(=O)c1ccc2c(c1)CCN2C(=O)CCCC(=O)O)c1ccccc1 (stereo not given) | inactive: 2.87% | –
Cc1ccccc1NC(=O)CSc1nc(-c2cccs2)nc2cc(=O)[nH]n12 | inactive: 7% | –
Cc1ccc(C(C)C)c(OCCCn2ccnc2C)c1 | – | inconclusive: 22.4 µM [inhibitor, single point]
CCN1CCN(Cc2c(OC)ccc3ccccc23)CC1 | inactive: -13.7% | –
NC(Cc1ccc(C(F)(F)F)cc1)c1csc(Nc2nccc(C(F)(F)F)n2)n1 (stereo not given) | – | inconclusive: 28.2 µM [inhibitor, single point]
O=C(Cn1cnc2c(nnn2Cc2ccc(Cl)cc2)c1=O)NCc1ccco1 | – | inconclusive: 14.1 µM [inhibitor, single point]
CC(CCc1ccccc1)NC(=S)NC1CCCCC1 (stereo not given) | – | inconclusive: 28.2 µM [inhibitor, single point]
Cc1ccccc1C(=O)O/N=C(\N)Cc1cccs1 | – | inconclusive: 15.8 µM [inhibitor, partial curve, poor fit]
COc1cc(/C=C2\CCCc3c2nc2ccccc2c3C(=O)O)cc([N+](=O)[O-])c1O | – | inconclusive: 10 µM [inhibitor, partial curve, poor fit]
CN(C)c1ccc(C(C#N)c2ccccc2)nn1 (stereo not given) | inactive: -10.5% | –
CCOC(=O)c1nn(-c2ccccc2)c(-c2ccccc2)c1C(=O)c1ccccc1 | inactive: -19.6% | –
COc1ccc(S(=O)(=O)N2CCc3ccccc32)cc1C(=O)Nc1ccc(C(N)=O)cc1 | – | inconclusive: 28.2 µM [inhibitor, single point]
COc1ccccc1-c1nnc(Sc2nc([N+](=O)[O-])nn2C)o1 | – | inconclusive: 31.6 µM [inhibitor, single point]
CSc1nc(N(C)NC(=O)c2ccc(Cl)cc2)c2ccccc2n1 | inactive: -48.9% | –
COc1ccccc1NC(=S)NCc1ccccc1 | inactive: -10.2% | –
CC(=O)Nc1ccc(S(=O)(=O)N2CCN(c3ncccn3)CC2)cc1 | inactive: 2.35% | –
CNC(=O)/C(=C/c1ccc2c(c1)OCO2)NC(=O)c1ccc(Br)cc1 | – | inconclusive: 7.08 µM [inhibitor, partial curve, poor fit]
N#C/C(=N/Nc1ccccc1F)C(=N)N1CCOCC1 | – | inconclusive: 28.2 µM [inhibitor, partial curve, poor fit]
Cc1cc(N/N=C/c2ccccc2Br)nc2ccccc12 | – | inconclusive: 11.2 µM [inhibitor, partial curve, poor fit]
COc1ccc2c(c1)CCc1c(C(=O)NCCCn3ccnc3)noc1-2 | inactive: -4.42% | –
CCc1ccc(C(=O)CC2(O)C(=O)N(Cc3ccc(C)cc3)c3ccccc32)cc1 (stereo not given) | – | inconclusive: 22.4 µM [inhibitor, single point]
CCCCOc1ccccc1C(=O)N(Cc1sccc1C)C1CCS(=O)(=O)C1 (stereo not given) | inactive: -5.41% | –
CCOc1ccc(NC(=O)CSc2c3c(nc4ccccc24)CCCC3)cc1 | inactive: -14.3% | –
Cc1cccc(NC(=S)NC2CCCC2)n1 | – | inconclusive: 3.98 µM [inhibitor, full curve]

Structure (SMILES) | activity change, negative = inhibition | Potency
COc1ccc(OC)c(NC(=O)C(=O)NNC(=O)C23CC4CC(CC(C4)C2)C3)c1 | inactive: -3.61% | –
CC(C)C(Cl)=NOC(=O)Nc1ccc(S(N)(=O)=O)cc1 | – | inconclusive: 11.2 µM [inhibitor, partial curve, poor fit]
COc1ccc(N2CCN(Cc3nc4c(c(=O)n(C)c(=O)n4C)n3C(C)C)CC2)cc1 | inactive: 1.06% | –
O=c1c2ccccc2nc(-c2ccccc2)n1O | inactive: 15.9% | –
O=C(Cn1cc(C(=O)C2CC2)c2ccccc21)NCc1ccccc1 | inactive: -2.42% | –
CCN(CC)CCNC(=O)c1[nH]c2ccc(OCc3ccccc3)cc2c1C | – | inconclusive: 28.2 µM [inhibitor, single point]
O=C1C(=C2CCCCC2)SC(=S)N1Cc1ccco1 | – | inconclusive: 12.6 µM [inhibitor, single point]
Cc1ccc(-c2csc3ncnc(Sc4nnc(CN5CCCCCC5=O)o4)c23)cc1 | – | inconclusive: 11.2 µM [inhibitor, partial curve, poor fit]
O=C(/C=C/NNC(=O)c1ccc(Br)cc1)c1ccccc1 | – | inconclusive: 12.6 µM [inhibitor, single point]
CCn1ncc(/C=N/NC(=O)c2ccc3c(c2)OCO3)c1C | – | inconclusive: 10 µM [inhibitor, partial curve, poor fit]
Cc1cc(NC(=O)CCC(=O)N(Cc2ccccc2)C(C(=O)NC2CCCC2)c2ccco2)no1 (stereo not given) | – | inconclusive: 12.6 µM [inhibitor, single point]
CN(C)S(=O)(=O)c1cccc(NC(=O)CSc2cccc3cccnc23)c1 | – | inconclusive: 0.316 µM [inhibitor, full curve, poor fit]
O=C(CCS(=O)(=O)c1ccc(Br)s1)Nc1cc(C(F)(F)F)cc(C(F)(F)F)c1 | – | inconclusive: 10 µM [inhibitor, single point]
Cc1cccc(NC(=S)NC(C)CCc2ccccc2)c1 (stereo not given) | – | inconclusive: 25.1 µM [inhibitor, single point]
O=c1c2ccccc2sc2nc(CCl)nn12 | – | inconclusive: 10 µM [inhibitor, partial curve, poor fit]
Cc1cccc(OC(=O)c2snnc2C)c1 | inactive: 2.95% | –
C/C(=N\NC(=O)Cc1ccc(Cl)cc1)c1ccccn1 | – | inconclusive: 11.2 µM [inhibitor, partial curve, poor fit]
O=C(Nc1nc2ccccc2n1CCOc1ccccc1)c1ccco1 | – | inconclusive: 11.2 µM [inhibitor, single point]
C=CCNC(=S)N/N=C(\C)c1ccc(OC)cc1 | – | inconclusive: 4.47 µM [inhibitor, full curve, poor fit]
CCCCN(CCCC)S(=O)(=O)c1ccc(NC(=O)Cc2cccs2)cc1 | – | inconclusive: 11.2 µM [inhibitor, partial curve, poor fit]
CCOC(=O)c1ccc(NC(=O)C2CCCN(S(=O)(=O)c3ccc(F)cc3)C2)cc1 (stereo not given) | – | inconclusive: 10 µM [inhibitor, partial curve, poor fit]
NC(CSC(c1ccccc1)(c1ccccc1)c1ccccc1)C(=O)O (stereo not given) | – | inconclusive: 2 µM [inhibitor, partial curve, poor fit]
O=C(O)/C=C/C(=O)Nc1ccc(Oc2ccccc2)cc1 | inactive: 22.2% | –
O=C(Nc1nc2ccc(F)cc2s1)c1ccccn1 | – | inconclusive: 1 µM [inhibitor, full curve, poor fit]

Structure (SMILES) | activity change, negative = inhibition | Potency
COc1ccc(NC(=O)Nc2cccc3c2O[C@H](CN(C)C(=O)Nc2ccc(C(F)(F)F)cc2)[C@@H](C)CN([C@H](C)CO)C3=O)cc1 | inactive: 0.361% | –
CCOC(=O)c1nn(-c2ccc(Cl)cc2)c2nc(-c3ccc(C)cc3)c(C#N)c(=O)n12 | inactive: -3.36% | –
N=c1n(CCN2CCCCC2)c2ccccc2n1CC(O)COc1ccccc1 (stereo not given) | – | inconclusive: 20 µM [inhibitor, single point] and inconclusive: 8.91 µM [inhibitor, partial curve, poor fit]
Cc1cc(C)cc(N(C(=O)c2nsc(Cl)c2Cl)C(C(=O)NC2CCCC2)c2ccc(O)cc2)c1 (stereo not given) | – | inconclusive: 12.6 µM [inhibitor, single point]
O=C(Nc1nccs1)c1cc(-c2ccccn2)nc2c(Cl)cccc12 | – | inconclusive: 28.2 µM [inhibitor, single point]
CCN1CCN(CCNC(=O)C2CCCN(Cc3nc(-c4cccc(Cl)c4)oc3C)C2)CC1 (stereo not given) | inactive: -27% | –
CC(=O)c1ccc(OCC(O)CN2CCN(CCN3C(=O)c4cccc5cccc(c45)C3=O)CC2)cc1 (stereo not given) | – | inconclusive: 11.2 µM [inhibitor, single point]
NC(=S)Nc1ncc(C(F)(F)F)cc1Cl | – | inconclusive: 28.2 µM [inhibitor, single point]
COc1cc(NC2=Nc3cccc4cccc2c34)cc(OC)c1OC | – | inconclusive: 3.98 µM [inhibitor, partial curve]
CCNC(=O)c1ccc(CSc2nc3cccnc3n2Cc2ccc(OC)cc2)cc1 | inactive: 11.6% | –
CCC(=O)NCC(c1cccs1)N1CCOCC1 (stereo not given) | inactive: 0.315% | –
CC(C)CNC(=S)NNC(=O)c1csc2c1CCC(C)C2 (stereo not given) | inactive: 1.17% | –
Cc1[nH]n(C(N)=S)c(=O)c1N=Nc1cccc(C(F)(F)F)c1 | inconclusive: -86.3% [inhibitor] | –
O=C1N/C(=N\N=C\c2cccs2)SC1Cc1cccc(Cl)c1 (stereo not given) | – | inconclusive: 10 µM [inhibitor, partial curve]
Cc1ccc(CNC(=O)CCCN2C(=O)CCn3nc(-c4cn(C)c5ccccc45)cc32)cc1 | inactive: 0.315% | –
O=C(Cn1cnc2onc(-c3ccc(F)cc3)c2c1=O)Nc1cccc(C(F)(F)F)c1 | inactive: -13.5% | –
Cc1ccc(NC(=O)COn2nnc3ccc(S(=O)(=O)N(C)C)cc32)cc1F | – | inconclusive: 10 µM [inhibitor, single point]
COc1ccc(N=C(NN)c2ccc3ccccc3n2)cc1 | – | inconclusive: 12.6 µM [inhibitor, partial curve, poor fit]
CCc1ccc(NSc2ccccc2[N+](=O)[O-])cc1 | – | inconclusive: 3.98 µM [inhibitor, partial curve, poor fit]
COc1ccc(C(=O)NC(=S)Nc2ccc(S(=O)(=O)Nc3cc(OC)ncn3)cc2)cc1 | inactive: 4.89% | –
O=C(CSc1nc(C2CC2)nc2ccccc12)Nc1ccccc1Cl | – | inconclusive: 5.62 µM [inhibitor, full curve, poor fit]
O=C(CN1CCC(n2nnc3cc(C(F)(F)F)ccc32)CC1)Nc1ccc2c(c1)OCCO2 | – | inconclusive: 2 µM [inhibitor, partial curve, poor fit]

— PubChem BioAssay AID624418 (National Center for Advancing Translational Sciences (NCATS), 2012)
